The supplement of paper PMC8728848
The list shows a part of the results.

Legend:
Experiment in all cases: glycan array binding signal (z-score within array); higher = stronger binding
Details in all cases: glycan notation: IUPAC condensed, linker removed
[1] = biological target: GlcNAc(b1-2)Gal(b1-3)GalNAc
Outline: (§1)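 Glycan array data came from 3228 arrays in the Consortium for Functional Glycomics database, and only arrays with an available protein sequence were kept. Glycan names were put into IUPAC-condensed notation, and columns mapping to the same glycan were averaged. The binding signal is a within-array Z-score, averaged across arrays of one protein sequence run at different concentrations or buffers and across linkers. A negative Z-score can be read as non-binding.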

[2] = biological target: GlcNAc(b1-2)Man(a1-3)[GlcNAc(b1-2)Man(a1-6)]Man(b1-4)GlcNAc(b1-4)GlcNAc
Outline: as §1

[3] = biological target: GlcNAc(b1-2)Man(a1-3)[GlcNAc(b1-2)Man(a1-6)]Man(b1-4)GlcNAc(b1-4)[Fuc(a1-6)]GlcNAc
Outline: as §1

[4] = biological target: GlcNAc(b1-2)Man(a1-3)[GlcNAc(b1-4)][GlcNAc(b1-2)Man(a1-6)]Man(b1-4)GlcNAc(b1-4)GlcNAc
Outline: as §1

[5] = biological target: GlcNAc(b1-2)Man(a1-3)[GlcNAc(b1-4)][GlcNAc(b1-2)Man(a1-6)]Man(b1-4)GlcNAc(b1-4)[Fuc(a1-6)]GlcNAc
Outline: as §1

[6] = biological target: GlcNAc(b1-2)[GlcNAc(b1-4)]Man(a1-3)[GlcNAc(b1-2)Man(a1-6)]Man(b1-4)GlcNAc(b1-4)GlcNAc
Outline: as §1

[7] = biological target: GlcNAc(b1-2)[GlcNAc(b1-4)]Man(a1-3)[GlcNAc(b1-4)][GlcNAc(b1-2)Man(a1-6)]Man(b1-4)GlcNAc(b1-4)GlcNAc
Outline: as §1

[8] = biological target: GlcNAc(b1-2)[GlcNAc(b1-4)]Man(a1-3)[GlcNAc(b1-4)][GlcNAc(b1-2)[GlcNAc(b1-6)]Man(a1-6)]Man(b1-4)GlcNAc(b1-4)GlcNAc
Outline: as §1

[9] = biological target: GlcNAc(b1-2)[GlcNAc(b1-4)]Man(a1-3)[GlcNAc(b1-4)][GlcNAc(b1-2)[GlcNAc(b1-6)]Man(a1-6)]Man(b1-4)GlcNAc(b1-4)[Fuc(a1-6)]GlcNAc
Outline: as §1

[10] = biological target: GlcNAc(b1-2)[GlcNAc(b1-6)]Man(a1-6)[GlcNAc(b1-2)Man(a1-3)]Man(b1-4)GlcNAc(b1-4)GlcNAc
Outline: as §1

[11] = biological target: GlcNAc(b1-2)[GlcNAc(b1-6)]Man(a1-6)[GlcNAc(b1-2)Man(a1-3)]Man(b1-4)GlcNAc(b1-4)[Fuc(a1-6)]GlcNAc
Outline: as §1

[12] = biological target: GlcNAc(b1-2)[GlcNAc(b1-6)]Man(a1-6)[GlcNAc(b1-4)][GlcNAc(b1-2)Man(a1-3)]Man(b1-4)GlcNAc(b1-4)GlcNAc
Outline: as §1

[13] = biological target: GlcNAc(b1-3)Fuc
Outline: as §1

[14] = biological target: GlcNAc(b1-3)Gal
Outline: as §1

[15] = biological target: GlcNAc(b1-3)Gal(b1-3)GalNAc
Outline: as §1

[16] = biological target: GlcNAc(b1-3)Gal(b1-4)Glc
Outline: as §1

[17] = biological target: GlcNAc(b1-3)Gal(b1-4)GlcNAc
Outline: as §1

[18] = biological target: GlcNAc(b1-3)Gal(b1-4)GlcNAc(b1-2)Man(a1-3)[GlcNAc(b1-3)Gal(b1-4)GlcNAc(b1-2)Man(a1-6)]Man(b1-4)GlcNAc(b1-4)GlcNAc
Outline: as §1

[19] = biological target: GlcNAc(b1-3)Gal(b1-4)GlcNAc(b1-2)Man(a1-3)[GlcNAc(b1-3)Gal(b1-4)GlcNAc(b1-2)Man(a1-6)]Man(b1-4)GlcNAc(b1-4)[Fuc(a1-6)]GlcNAc
Outline: as §1

[20] = biological target: GlcNAc(b1-3)Gal(b1-4)GlcNAc(b1-2)[GlcNAc(b1-3)Gal(b1-4)GlcNAc(b1-6)]Man(a1-6)[GlcNAc(b1-3)Gal(b1-4)GlcNAc(b1-2)Man(a1-3)]Man(b1-4)GlcNAc(b1-4)GlcNAc
Outline: as §1

[21] = biological target: GlcNAc(b1-3)Gal(b1-4)GlcNAc(b1-3)Gal(b1-4)GlcNAc
Outline: as §1

[22] = biological target: GlcNAc(b1-3)Gal(b1-4)GlcNAc(b1-3)Gal(b1-4)GlcNAc(b1-2)Man(a1-3)[GlcNAc(b1-3)Gal(b1-4)GlcNAc(b1-3)Gal(b1-4)GlcNAc(b1-2)Man(a1-6)]Man(b1-4)GlcNAc(b1-4)GlcNAc
Outline: as §1

B1: PNGase F (Flavobacterium meningosepticum) (protein)
chain: GIPAPADNTVNIKTFDKVKNAFGDGLSQSAEGTFTFPADVTAVKTIKMFIKNECPNKTCDEWDRYANVYVKNKTTGEWYEIGRFITPYWVGTEKLPRGLEIDVTDFKSLLSGNTELKIYTETWLAKGREYSVDFDIVYGTPDYKYSAVVPVVQYNKSSIDGVPYGKAHTLALKKNIQLPTNTEKAYLRTTISGWGHAKPYDAGSRGCAEWCFRTHTIAINNSNTFQHQLGALGCSANPINNQSPGNWTPDRAGWCPGMAVPTRIDVLNNSLIGSTFSYEYKFQNWTNNGTNGDAFYAISSFVIAKSNTPISAPVVTNLDPHHHHHH
- glycan array binding signal (z-score) [1]: -0.114
- glycan array binding signal (z-score) [2]: -0.251
- glycan array binding signal (z-score) [3]: -0.125
- glycan array binding signal (z-score) [4]: -0.221
- glycan array binding signal (z-score) [5]: -0.281
- glycan array binding signal (z-score) [6]: -0.288
- glycan array binding signal (z-score) [7]: 0.216
- glycan array binding signal (z-score) [8]: -0.237
- glycan array binding signal (z-score) [9]: -0.395
- glycan array binding signal (z-score) [10]: -0.253
- glycan array binding signal (z-score) [11]: -0.288
- glycan array binding signal (z-score) [12]: -0.333
- glycan array binding signal (z-score) [13]: 0.029
- glycan array binding signal (z-score) [14]: -0.095
- glycan array binding signal (z-score) [15]: -0.275
- glycan array binding signal (z-score) [16]: -0.201
- glycan array binding signal (z-score) [17]: -0.264
- glycan array binding signal (z-score) [18]: -0.271
- glycan array binding signal (z-score) [19]: -0.237
- glycan array binding signal (z-score) [20]: -0.08
- glycan array binding signal (z-score) [21]: -0.343
- glycan array binding signal (z-score) [22]: -0.013
